# Assay results published in PubChem BioAssay AID686979 (National Center for Advancing Translational Sciences (NCATS), 2013).
# The whole screen tested about 420,000 compounds, of which about 50,000 (12%) were called active. This list was built around the results that the source calls inconclusive (neither active nor inactive); the mix of calls is not that of the screen. Calls come from the whole dose curve; as a rule, active = well fitted inhibition curve with a large enough effect; inconclusive = small, poorly fitted or top-dose-only effect; inactive = flat fitted curve, though single readings scatter. Potencies of inconclusive entries are left out as doubtful fits.
# Experiment: qHTS for Inhibitors of human tyrosyl-DNA phosphodiesterase 1 (TDP1): qHTS in cells in presence of CPT; note: nearly all actives have a fitted effect of over 55% in size
# Conditions: chicken DT40 Tdp1-/-;hTDP1 cells + 20 nM CPT, ATP luminescence, 48 h; activity change, negative = growth inhibition: at 46.2 µM (top of the series) unless noted
# Outline: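 Chicken DT40 Tdp1-/- cells complemented with human TDP1, 400 cells/well, exposed to compounds plus 20 nM camptothecin for at least 48 h at 37 C; viability read as ATP content by CellTiter-Glo luminescence.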
# % is set by controls: 0 for no effect and ±100 for the full control effect; potency is the fitted concentration of half-maximal effect; tags give direction and shape of the fitted curve.
SMILES,Potency,"activity change, negative = growth inhibition"
c1ccc(-c2ccc3[nH]ccc3c2)cc1,"inconclusive [inhibitor, single point]",
O=C(CCNS(=O)(=O)c1ccccc1)N1CCC(Cc2ccccc2)CC1,"inconclusive [inhibitor, single point]",
CCc1nc2ccc(C(=O)NCCCN3CCCC3=O)cn2c1N(CC)Cc1cccc(Br)c1,active: 20.6 µM,
CC(=O)Nc1ccc(OCC(O)Cn2c(C)nc3ccccc32)cc1 (stereo not drawn),"inconclusive [inhibitor, partial curve]",
O=C(Cc1ccc(F)cc1)N1CCC(c2nc3c(nnn3Cc3ccc(F)cc3)c(=O)[nH]2)CC1,"inconclusive [inhibitor, single point]",
CN(C)C(=O)c1ccc(-c2nc(Nc3ccncc3)c3ccccc3n2)cc1,"inconclusive [inhibitor, single point]",
COc1ccc(-c2c(-c3ccccc3OC)sc3ccccc23)cc1OC,"inconclusive [inhibitor, single point]",
COc1ccc(CNC(=O)COC(=O)c2n[nH]c3ccccc23)cc1OC,,inconclusive: -32.4% [inhibitor]
CC1CCN(C(=O)/C(=C/c2ccccc2Cl)c2ccccc2)CC1,"inconclusive [inhibitor, single point]",
CSCCC(NC(=O)c1ccccc1Cl)C(=O)NCCc1ccccn1 (stereo not drawn),inactive,
O=C(Cn1nnc(-c2ccc(F)cc2)n1)NC(=O)NC1CCCCC1,"inconclusive [inhibitor, partial curve]",
COc1ccc(C(C(=O)NCC2CCCO2)N(Cc2ccccc2)C(=O)c2snc(C(N)=O)c2N)cc1OC (stereo not drawn),"inconclusive [inhibitor, single point]",
Cc1ccc(CNC(=O)c2nc(-c3ccc(Cl)cc3)n3c2CCCCC3)cc1,"inconclusive [inhibitor, single point]",
N#Cc1ccccc1Cn1c(=O)n(CCCCC(=O)NCc2ccc3c(c2)OCO3)c(=O)c2ccccc21,,inconclusive: -32% [inhibitor]
CCCCNc1c(-c2cc3ccccc3o2)nc2nc(C)cc(C)n12,"inconclusive [inhibitor, single point]",
O=C(c1cnc2ccccn2c1=O)N1CCCc2ccccc21,inactive,
COc1ccc(S(=O)(=O)N2CCCCCC2)cc1C(=O)N(C)Cc1ccc(C(C)(C)C)cc1,"inconclusive [inhibitor, single point]",
Cc1ccc(O)c(N)c1,"inconclusive [inhibitor, single point]",
